Test results published in PubChem BioAssay AID488969 (Vanderbilt High Throughput Screening Facility, 2010).
In all, about 110,000 compounds were measured (“z-score”: median about -0.1, highest 2% from about 2 on). This is one part of the list. Calls of active or inactive are those of the source.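 How the source made its calls: active means z-score in the third read window above 3 or below -3; inactive means the rest.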

target: Metabotropic glutamate receptor 8 (Rattus norvegicus) (UniProt P70579); test: rat mGluR8 modulators via GIRK flux, primary screen, cell-based, thallium flux, HTS (AID 488969); details: HEK293 rat mGluR8, GIRK (G protein-gated inwardly rectifying potassium channel) thallium flux, FluoZin2; at 10 µM; stronger effect = higher value; submaximal glutamate (EC20) added with thallium
UniProt P70579, sequence (P70579 whole entry, looked up): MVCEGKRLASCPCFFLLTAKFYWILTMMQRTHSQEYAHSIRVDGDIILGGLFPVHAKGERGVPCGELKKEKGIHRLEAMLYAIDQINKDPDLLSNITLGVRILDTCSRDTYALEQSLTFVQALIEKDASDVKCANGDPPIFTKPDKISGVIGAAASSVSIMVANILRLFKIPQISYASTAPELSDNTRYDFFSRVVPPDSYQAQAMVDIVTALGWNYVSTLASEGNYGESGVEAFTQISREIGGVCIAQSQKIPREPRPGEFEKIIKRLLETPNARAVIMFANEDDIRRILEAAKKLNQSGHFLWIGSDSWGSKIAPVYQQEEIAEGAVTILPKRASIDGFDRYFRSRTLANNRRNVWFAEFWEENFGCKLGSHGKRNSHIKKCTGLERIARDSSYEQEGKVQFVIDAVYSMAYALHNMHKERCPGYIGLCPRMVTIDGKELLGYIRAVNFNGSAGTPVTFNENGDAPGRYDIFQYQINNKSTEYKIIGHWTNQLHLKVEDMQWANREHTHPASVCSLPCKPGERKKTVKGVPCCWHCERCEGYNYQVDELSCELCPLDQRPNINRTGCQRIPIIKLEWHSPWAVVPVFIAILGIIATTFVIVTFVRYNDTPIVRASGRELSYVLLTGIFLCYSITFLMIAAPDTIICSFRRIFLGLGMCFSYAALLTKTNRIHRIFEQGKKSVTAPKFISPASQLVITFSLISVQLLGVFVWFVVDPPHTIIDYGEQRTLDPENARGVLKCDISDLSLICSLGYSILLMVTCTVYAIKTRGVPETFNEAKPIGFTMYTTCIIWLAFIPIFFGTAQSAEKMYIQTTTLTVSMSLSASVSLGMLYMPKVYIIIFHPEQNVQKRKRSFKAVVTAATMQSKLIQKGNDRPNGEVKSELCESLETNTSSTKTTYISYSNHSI

Going from O=C(c1ccco1)N1CCN(S(=O)(=O)c2ccc(C3CCCCC3)cc2)CC1 to O=C(c1ccco1)N1CCN(S(=O)(=O)c2ccc(S(=O)(=O)NC3CCCCC3)cc2)CC1, the z-score rises from 0.0683 to 0.85.

Compared with Cc1ccc(S(=O)(=O)N(C(=O)c2ccncc2)c2ccc(OC(=O)c3ccncc3)cc2)c(C)c1, CCOc1ccc(S(=O)(=O)N(CC(=O)N/N=C/c2cccs2)c2ccc(C)cc2)cc1 is higher in z-score: -0.0221 for the first, 0.0399 for the second.

First: CC(C)CC1C(C#N)=C(N)SC(N)=C1C#N
Second: COc1ccc(C2C(C#N)=C(N)Oc3c2sc2nc(C)cc(C)c32)cc1 (stereo not drawn)
The z-score of the first is higher: 0.615 for the first, -0.176 for the second.

First: Fc1ccccc1CSc1nc2ncc(Br)cc2[nH]1
Second: O=C(Nc1ccc2oc(-c3ccccc3F)nc2c1)c1ncn[nH]1
The z-score of the first is higher: 1.26 for the first, -0.429 for the second.

Compared with CC1(C)CC(=O)C=C(N2CCCC2)C1, NC(=O)c1ccc(N2CCCCC2)c(N2C(=O)C3CC=CCC3C2=O)c1 (stereo not drawn) is higher in z-score: 0.182 for the first, 0.258 for the second.

Going from CCCNC(=O)N1CCN(C(=O)NCCC)CC1 to NC(=O)N1CCN(C(=O)c2ccco2)CC1, the z-score rises from 0.192 to 0.536.

Going from COC(=O)CCc1n[nH]c(=O)[nH]c1=O to CC(=O)Nc1n[nH]c(S(=O)(=O)Cc2ccc(Cl)cc2Cl)n1, the z-score rises from -0.103 to -0.0134.

Compared with COc1cccc(C(=O)OCCN2C(=O)c3ccccc3C2=O)c1OC, CCOC(=O)C1=C(c2ccccc2)Nc2ncnn2C1c1ccc(OC)c(OC)c1OC (stereo not drawn) is lower in z-score: 0.5 for the first, -0.365 for the second.

Compared with Cc1cn(C(=O)c2cccc(Br)c2)c(C)n1, CCC(=O)Nc1cccc(Oc2nc(C)cc(C)c2C#N)c1 is lower in z-score: 0.0669 for the first, -0.681 for the second.

Compared with COc1ccc(C(=O)CC2OC(=O)c3c2ccc(OC)c3OC)cc1 (stereo not drawn), CNC(=S)N(Cc1ccc(OC)cc1)C1CC(=O)N(c2ccc(C(=O)OC)cc2)C1=O (stereo not drawn) is lower in z-score: -0.0894 for the first, -0.228 for the second.

Compared with COCCCNC(=O)Nc1ccc(F)cc1F, CCCONC(=O)Nc1ccccc1[N+](=O)[O-] is lower in z-score: 0.423 for the first, -0.204 for the second.

Compared with Cc1ccc(N(C(=O)Cn2nnc3ccccc32)C(C(=O)NCc2ccco2)c2cccnc2)cc1 (stereo not drawn), CCC(C)(C)NC(=O)C(c1ccccc1)N(Cc1cccs1)C(=O)Cn1nnc2ccccc21 (stereo not drawn) is higher in z-score: -0.0932 for the first, 0.0386 for the second.

Going from CC(C)C(c1nnnn1Cc1ccc(F)cc1)N1CCN(C2CCCCC2)CC1 (stereo not drawn) to CS(=O)(=O)N(CC(=O)N1CCN(Cc2ccccc2)CC1)C1CCCCC1, the z-score rises from -0.0791 to -0.0513.

Going from O=C(c1ccc(Cl)c(Cl)c1)N1CCCC1 to CS(=O)(=O)N(CC(=O)N1CCCC1)c1ccc(Cl)c(Cl)c1, the z-score falls from 0.0158 to -0.0333.

Going from COc1ccc(C(=O)n2nc(-c3ccc(Cl)cc3)nc2N)cc1OC to COc1cc(C(=O)Nc2ccc(S(=O)(=O)Nc3nccc(C)n3)cc2)cc(OC)c1OC, the z-score rises from -0.116 to 0.00518.

First: COc1cc(Cl)c(C)cc1NC(=O)CSc1ccccc1
Second: CSc1ccccc1C(=O)Nc1ccc(C)c(C)c1
The z-score of the first is higher: -0.18 for the first, -0.333 for the second.

Compared with Cc1ccc(C)c(NS(=O)(=O)c2ccc(NC(=O)c3ccco3)cc2)c1, O=S(=O)(Nc1nc2ccccc2nc1NCc1ccco1)c1ccc(Cl)cc1 is higher in z-score: -0.199 for the first, -0.195 for the second.

Compared with Cc1nn(CC2CCCCC2)c(N)c1-c1ccccc1, O=C(O)C1CCCCC1C(=O)N1CC=C(c2ccccc2)CC1 (stereo not drawn) is higher in z-score: -0.323 for the first, 0.767 for the second.

Compared with O=C(Nc1ccc(N2CCCCC2)c(Cl)c1)c1ncn[nH]1, O=C(CSc1nc(N2CCCCC2)nc(N2CCCCC2)n1)N1CCc2ccccc21 is lower in z-score: 0.615 for the first, -0.251 for the second.

Going from Cc1cccc(Nc2nc(N)c([N+](=O)[O-])c(N3CC(C)CC(C)C3)n2)c1 (stereo not drawn) to O=[N+]([O-])c1c(Nc2ccc(O)cc2)cc(N2CCOCC2)c2nonc12, the z-score rises from -0.256 to 0.274.

First: Cc1ccc(-n2c(C)cc(/C=N/Nc3ccc([N+](=O)[O-])cn3)c2C)cc1
Second: Cc1nn(-c2ccccc2)c(C)c1/C=N/Nc1nc2ccccc2[nH]1
The z-score of the first is higher: -0.189 for the first, -0.376 for the second.

First: COC(=O)c1ccc(NC(C)=O)o1
Second: CCCCC(=O)NC(=S)Nc1cc(C(=O)O)ccc1Cl
The z-score of the first is higher: 0.0376 for the first, -0.872 for the second.

Going from O=C(CCc1ccccc1)n1nc(-c2ccco2)nc1SCc1ccccc1 to N=c1c2c(-c3ccccc3)c(-c3ccccc3)n(Cc3ccco3)c2ncn1Cc1ccccc1, the z-score rises from 0.379 to 0.528.

Going from COc1ccc2oc(=O)c(C(=O)N3CCN(c4ccccc4C)CC3)cc2c1 to Cc1ccc(C(=O)N2CCN(c3ccc([N+](=O)[O-])c(N4CCOCC4)c3)CC2)cc1, the z-score falls from 0.226 to -0.394.

First: COc1ccc(S(=O)(=O)n2ccc(-c3ccc(OCCN(C)c4ccccn4)cc3)n2)cc1
Second: COc1ccc(OCCCC(=O)Nc2cccc(C(C)=O)c2)cc1
The z-score of the first is higher: 0.589 for the first, -0.154 for the second.

Compared with O=C(Nc1nccs1)C1C2/C=C\CCCCC21 (stereo not drawn), O=C(Nc1nnc(SCc2c(Cl)cccc2Cl)s1)C1CCCO1 (stereo not drawn) is lower in z-score: 0.175 for the first, -0.569 for the second.

First: Cc1ccc(/C=N/n2c(=O)c(C(C)(C)C)nn3cnnc23)cc1
Second: CCn1c(SCC(=O)C(C)(C)C)nnc1-c1ccccn1
The z-score of the first is lower: -0.242 for the first, -0.225 for the second.

Going from Cc1cccc(C(=O)N2c3ccccc3C(=O)OC2c2ccc3c(c2)OCO3)c1 (stereo not drawn) to Cc1cc(C(=O)COC(=O)CC2Sc3ccccc3NC2=O)c(C)n1-c1ccc2c(c1)OCO2 (stereo not drawn), the z-score rises from -0.842 to -0.474.

Compared with Cc1ccccc1N1CC(O)(c2ccccc2)[N+]2=C1SCC2 (stereo not drawn), Cc1ccc(NC(=O)C2CCCN2C(=O)Oc2ccccc2)cc1C (stereo not drawn) is higher in z-score: -0.424 for the first, -0.375 for the second.

First: CNC(=O)C1=C(C)NC(=S)NC1c1cc2c(cc1OC)CCCC2 (stereo not drawn)
Second: CCOC(=O)c1c(NC(=O)c2c(C)noc2C)sc2c1CCCCC2
The z-score of the first is higher: -0.175 for the first, -0.649 for the second.

Going from O=C(N/N=C/c1c[nH]c2ccc(Br)cc12)c1ccn(Cc2ccc(Cl)cc2)n1 to Cc1cccc(N2C(=O)c3cccc(Oc4ccc(Cl)cc4)c3C2=O)c1, the z-score falls from -0.0795 to -0.0858.

First: COc1ccccc1Nc1ccc(S(=O)(=O)N2CCCCC2)cc1[N+](=O)[O-]
Second: COc1ccccc1CN1C(=O)CCC1(C)C(=O)NC1CCCCCC1 (stereo not drawn)
The z-score of the first is lower: -0.0524 for the first, 0.277 for the second.

First: COCCn1c(SCC(=O)Nc2ccc(NC(=O)c3ccco3)c(OC)c2)nc2ccccc2c1=O
Second: O=C(CSCc1ccc([N+](=O)[O-])cc1)Nc1cccc(C(=O)Nc2ccccc2C(=O)O)c1
The z-score of the first is higher: -0.361 for the first, -0.965 for the second.

First: CCOc1ccc(C(CCc2ccccc2)NC(=O)c2ccccc2OC)cc1OCC (stereo not drawn)
Second: COc1ccc(CN(C(=O)CO/N=C/c2ccccc2)c2ccccc2C(=O)O)cc1
The z-score of the first is lower: -0.472 for the first, -0.413 for the second.

Going from CCc1cccc(NS(=O)(=O)c2c(C)n[nH]c2C)c1 to Cc1noc(C)c1C(=O)OCC(=O)Nc1cccc(S(=O)(=O)N(C)C)c1, the z-score rises from -0.174 to -0.164.

Going from Cc1cc(C)n(C(=O)CCC(=O)NCc2ccccc2)n1 to COc1ccccc1CNC(=O)CCn1c(=O)sc2ccccc21, the z-score rises from -0.571 to -0.0788.

First: Cc1ccc(N(C(=O)c2cccs2)C2C=CS(=O)(=O)C2)cc1 (stereo not drawn)
Second: Cc1ccccc1C(=O)Nc1cccc(NC(=S)NC(=O)c2cccs2)c1
The z-score of the first is higher: -0.179 for the first, -0.348 for the second.

First: Cn1cnnc1SCC(=O)Nc1ccccc1C(=O)NC1CC1
Second: Cn1cnnc1SCC(=O)Nc1ccccc1
The z-score of the first is lower: -0.145 for the first, -0.0644 for the second.

Compared with Cc1ccc(C(=O)NC(=S)Nc2ccc(NC(=O)c3cccc(Cl)c3)cc2)cc1, O=C(CCC(=O)OCc1ccc(C(=O)Oc2ccc(Cl)cc2)cc1)Nc1ccccc1 is higher in z-score: -0.278 for the first, -0.077 for the second.

Going from O=C1NN(c2ccccc2)C(=O)C2C1C1C=CC2C12CC2 (stereo not drawn) to NC(=O)CN1C(=O)C2C3C=CC(C3)C2C1=O (stereo not drawn), the z-score rises from 0.0539 to 0.92.

Going from COc1ccc(N2CCN(CCCNC(=O)CCCn3c(=O)[nH]c4ccsc4c3=O)CC2)cc1 to O=C(CN1CCN(c2ncccn2)CC1)Nc1ccccc1-n1cccc1, the z-score falls from 1.23 to -0.817.

First: CCCc1cc2c(=O)c(-c3ccc4c(c3)OCCO4)coc2cc1OC(=O)c1ccco1
Second: O=C(COc1ccc(S(=O)(=O)NC2CCCCC2)cc1)Nc1ccc2c(c1)OCCO2
The z-score of the first is lower: -0.0335 for the first, -0.0244 for the second.

Going from CCCCSc1nc(NCc2ccco2)c2c3c(sc2n1)COC(C)(C)C3 to CCCCc1cc2c(c(NC(=O)CC)n1)c(=O)oc1ccccc12, the z-score rises from -0.404 to -0.342.

First: Cc1ccc(C)c(N(C(=O)CS(=O)CC(=O)Nc2ccc3c(c2)OCO3)C(C)C(=O)NC2CCCC2)c1 (stereo not drawn)
Second: CCCc1cc(C(=O)NC2CCCC2)no1
The z-score of the first is lower: 0.0572 for the first, 1.06 for the second.

Compared with Cc1cc(=O)oc2c1c(C)nn2-c1nn[nH]n1, Cc1cc(NC(=O)CSCc2nc(-c3cccc(F)c3)oc2C)no1 is lower in z-score: 0.873 for the first, -0.234 for the second.

Compared with CCCN(CCC)C(=O)Cc1coc2ccc3ccccc3c12, CCCc1cc(-c2nc(-c3ccc(Br)cc3)cs2)ccn1 is higher in z-score: -0.408 for the first, 0.0465 for the second.

Going from CCOC(=O)C1=C(c2ccccc2)N=c2s/c(=C\c3cccc(O)c3)c(=O)n2C1c1cccs1 (stereo not drawn) to CCOc1ccc(NC(=O)Cn2nnc(-c3ccccc3NC(=O)c3cccs3)n2)cc1, the z-score rises from -0.249 to -0.124.

First: O=C(Nc1cccnc1)c1cc(-c2ccco2)on1
Second: Cc1ccc(NC(=O)CSc2nnc(-c3ccco3)c(-c3ccco3)n2)cc1
The z-score of the first is lower: -0.416 for the first, -0.141 for the second.

First: COc1cccc(/C=N/NC(=O)c2[nH]c(C)c(C(=O)N/N=C/c3cccc(OC)c3O)c2C)c1O
Second: Cc1ccc2nc3c(cc2c1)c(NC(=O)c1cccnc1)nn3C
The z-score of the first is lower: -0.319 for the first, 0.179 for the second.

Compared with COc1ccc(C(O)C(CN2CCOCC2)c2ccccc2)cc1F (stereo not drawn), COc1nc(N(c2ccccc2)c2ccccc2)nc(-n2ccnc2)n1 is lower in z-score: 0.257 for the first, -2.75 for the second.

First: Cc1c(C(=O)NCCC2=CCCCC2)oc2ccc(S(=O)(=O)N3CCC4(CC3)OCCO4)cc12
Second: Cc1onc(-c2c(F)cccc2Cl)c1C(=O)N1C=CC(C(F)(F)F)=NCC1
The z-score of the first is higher: 0.452 for the first, -0.013 for the second.

Compared with CN(C)CCNC(=O)C1CCCNC1=O (stereo not drawn), O=C(COC(=O)C1CCC1)Nc1ccc(Oc2ccccc2)cc1 is lower in z-score: 0.0264 for the first, 0.0229 for the second.

Compared with CSc1ccc(/C=C/C(=O)c2ccc(O)cc2)cc1, CCn1c(SCC(=O)NNC(=S)Nc2ccccc2)nnc1-c1ccc(Cl)cc1 is lower in z-score: 0.969 for the first, -0.048 for the second.

With CC12CCC(C(=O)N(CSC(=S)N/N=C\c3ccccc3O)C1=O)C2(C)C (stereo not drawn) the z-score was active: 5.76.
In the case of CCOC(=O)N1CCN(c2c(F)cc3[nH]c(=S)[nH]c3c2Br)CC1, the z-score is reported as active: 6.26.
